Reference: the supplement of paper PMC4604168 (melanoma cell lines)
The list shows a part of the results. Single values are uncertain, as repeats are few or missing.

test system: 501Mel; assay: cell count relative to DMSO control; melanoma cells; higher = more viable cells; details: library dose: standard library concentration; 72 h
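Also: cells treated in 1,536-well plates, then fixed and DAPI-stained, with nuclei counted from automated high-throughput microscope images.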

Compound | cell count [%]
O=C(/C=C/c1cccnc1)NCCCCC1CCN(C(=O)c2ccccc2)CC1 + Cc1cc(SCc2sc(-c3ccc(C(F)(F)F)c(F)c3)nc2C)ccc1OCC(=O)O [GW0742] (first compound 0.05 µM, partner dose 10 µM) | 74
Nc1nc(F)nc2c1ncn2[C@@H]1O[C@H](CO)[C@@H](O)[C@@H]1O [fludarabine] + Cc1cc(SCc2sc(-c3ccc(C(F)(F)F)c(F)c3)nc2C)ccc1OCC(=O)O [GW0742] (first compound 1 µM, partner dose 10 µM) | 5.53
CC1(C)CCC(c2ccc(Cl)cc2)=C(CN2CCN(c3ccc(C(=O)NS(=O)(=O)c4ccc(N[C@H](CCN5CCOCC5)CSc5ccccc5)c(S(=O)(=O)C(F)(F)F)c4)cc3)CC2)C1 + O=C(Oc1ccc([N+](=O)[O-])cc1)N1CCC(C(O)(c2ccc3c(c2)OCO3)c2ccc3c(c2)OCO3)CC1 [JZL184] (first compound 2 µM, partner dose 5 µM) | 103
Cn1c(=O)n(-c2ccc(C(C)(C)C#N)cc2)c2c3cc(-c4cnc5ccccc5c4)ccc3ncc21 + Cc1cc(SCc2sc(-c3ccc(C(F)(F)F)c(F)c3)nc2C)ccc1OCC(=O)O [GW0742] (first compound 0.02 µM, partner dose 10 µM) | 76.8
NCC(=O)Nc1ccc(-n2nc(C(F)(F)F)cc2-c2ccc3c(ccc4ccccc43)c2)cc1 + Cc1cc(SCc2sc(-c3ccc(C(F)(F)F)c(F)c3)nc2C)ccc1OCC(=O)O [GW0742] (first compound 5 µM, partner dose 10 µM) | 0.828
O=C(Nc1cccc(Cl)c1)Nc1ncc(CCNc2ncnc3ccsc23)s1 + O=C(Oc1ccc([N+](=O)[O-])cc1)N1CCC(C(O)(c2ccc3c(c2)OCO3)c2ccc3c(c2)OCO3)CC1 [JZL184] (first compound 0.004 µM, partner dose 5 µM) | 81.3
CN(C)S(=O)(=O)c1ccc2c(c1)/C(=C/c1cc3c([nH]1)CCCC3)C(=O)N2 + C/C(O)=C(\C#N)C(=O)Nc1cc(Br)ccc1Br [LFM-A13] (first compound 2 µM, partner dose 10 µM) | 68.1
C[C@]1(c2nc3c(C(N)=O)cccc3[nH]2)CCCN1 [Veliparib] + O=C(Oc1ccc([N+](=O)[O-])cc1)N1CCC(C(O)(c2ccc3c(c2)OCO3)c2ccc3c(c2)OCO3)CC1 [JZL184] (first compound 7 µM, partner dose 5 µM) | 116
